Laboratory results from PubChem BioAssay AID1458 (National Center for Advancing Translational Sciences (NCATS), 2008).
The whole screen tested about 210,000 compounds, of which about 5,900 (2.8%) were called active. Inconclusive means that the source gave no clear call. Such entries were picked first, then a sample of the others. Calls come from the whole dose curve; as a rule, active = well fitted activation curve with a large enough effect; inconclusive = small, poorly fitted or top-dose-only effect; inactive = no such curve, though single readings can be large or run the other way. Potencies of inconclusive entries are doubtful fits and often do not repeat.

Assay: qHTS Assay for Enhancers of SMN2 Splice Variant Expression; note: nearly all actives have a fitted effect of over 55% in size
Conditions: HEK293 SMN2-luciferase splicing reporter, luminescence, 30-36 h; series mostly up to 46.1 µM
Outline: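 HEK293 cells carry an SMN2 minigene-luciferase reporter in which exon 7 inclusion puts luciferase in frame. Cells were seeded at 2000 cells/well, attached for 10-12 hours, then exposed to compounds for 30-36 hours at 37C before ONE-Glo luminescence.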
Potency is the fitted concentration of half-maximal effect; tags give direction and shape of the fitted curve.

Row | Compound | Potency
1 | Cc1cc(C(=O)CN2CCC(C)CC2)c(C)n1-c1ccccc1F | inconclusive: 2.24 µM [activator, full curve]
2 | COc1ccc(-c2nn(-c3ccccc3)cc2/C=N/NC(=O)c2cccc(S(=O)(=O)Nc3ccccc3OC)c2)cc1 | inconclusive: 14.1 µM [activator, partial curve]
3 | Fc1ccc(CSc2nc3ncccc3[nH]2)cc1 | inconclusive: 20 µM [activator, single point]
4 | Cc1cc(C(=O)Nc2c(F)cc(F)cc2Br)c(C)o1 | inconclusive: 0.1 µM [activator, full curve, poor fit]
5 | COc1ccc(-c2cn3nc4c(nc3n2)CCCC4)cc1 | inconclusive: 0.447 µM [activator, full curve]
6 | COc1ccc(-c2cc(-c3cc(F)ccc3O)[nH]n2)cc1OC | inconclusive: 20 µM [activator, single point]
7 | CCOc1ccc(NC2c3ccccc3C(=O)N2c2ccc(Cl)cn2)cc1 (stereo not given) | inconclusive: 35.5 µM [activator, single point]
8 | O=C(NCCc1nc2ccccc2n1Cc1ccccc1)c1ccco1 | inconclusive: 5.01 µM [activator, partial curve]
9 | CCOc1ccccc1OCCn1ncc2ccc(OC)c(OC)c2c1=O | inactive
10 | Cc1cc(C)c(C(CC(=O)c2cccs2)C(C#N)C#N)c(C)c1 (stereo not given) | inconclusive: 11.2 µM [activator, partial curve]
11 | Cc1csc(SCc2nnc(-c3ccc(Cl)cc3)o2)n1 | inconclusive: 12.6 µM [activator, partial curve]
12 | Cc1c(NC(=O)c2ccc(Br)s2)c(=O)n(-c2ccccc2)n1C | inactive
13 | CCN(CC(=O)N1CCOCC1)S(=O)(=O)c1ccc(C)cc1 | inconclusive: 0.355 µM [activator, full curve]
14 | CCN(CC)CCCCn1c(-c2ccccc2)nc2c(Nc3ccccc3)nc(C)nc21 | inactive
15 | CCCc1nnc(NC(=O)c2cccc(OC)c2)s1 | inconclusive: 15.8 µM [activator, single point]
16 | COc1c(C)cccc1C(=O)Nc1ccc(N2CCOCC2)c(Cl)c1 | active: 11.2 µM
17 | O=C(CCc1nnc(Cc2c[nH]c3ccccc23)o1)NC(C1CC1)C1CC1 | inactive
18 | Cc1ccsc1CN(C(=O)c1ccc(Br)cc1)C1CCS(=O)(=O)C1 (stereo not given) | inactive
19 | Cc1ccc2c(Cl)c(C(=O)Nc3cc(C)on3)sc2c1 | inconclusive: 31.6 µM [activator, single point]
20 | CCCCCC(=O)Nc1ccc(N2CCN(CC)CC2)c(Cl)c1 | inconclusive: 5.62 µM [activator, single point]
